B1: OR4K15 (parent)
chain: GUUAACGGUCAUAGGCCAUGGAAACUAGGAGCACCAUUUCGCUGCCAGUGAAGAAAUGAACAAAGAAAAUCUGGGCCAGGCAGGCAUCAAAAGAAAUAGUCUUGCGCUCAACCAGAAAGUCUGUAAUCAUUUUAAGGGUA

Read counts are not given, so values of variants with three or more changes are uncertain.

The variants in the data set derive from B1. In words: self-cleavage, relative activity (ratio to wild type); higher = more cleavage; in vitro, sequencing; the parent is a self-cleaving ribozyme.
For GUUAACGGUCAUAGGCCAUGGAAACUAGGAGCGCCAUUUCGCUGCCAGUGAGGAAAUGAACAAAGAAUAUCUGGGCCAGGCAGGCAUCAAAAGAAAUAGUCUUGCGCUCAACCAGAAAGUCUGUAAUCAUUUUAAGGGUA, the self-cleavage was determined as 0.75. On to GUUAACGGUCAUAGGCCAUGGAAACUAGGAGUACCAUUUCGCAGCCAGUGAAGAAAUGAACAAAGAAGAUCUGGGCCAGGCAGGCAUCAAAAGAAAUAGUCUUGCGCUCAACCAGAAAGUCUGUAAUCAUUUUAAGGGUA, for which the self-cleavage was 2.28. With GUUAACGGUCAUAGGCCAUGGAAACUAGGAGCCCCAUUUCGCUGCCAGUGAGGAAAUGGACAAAGAAAAUCUGGGCCAGGCAGGCAUCAAAAGAAAUAGUCUUGCGCUCAACCAGAAAGUCUGUAAUCAUUUUAAGGGUA the figure was 1.46; with GUUAACGGUCAUAGGCCAUGGAAACUAGGAGCGCCAUUUCGCUGCCAGUGAAGUAACGAACAAAGAAAAUCUGGGCCAGGCAGGCAUCAAAAGAAAUAGUCUUGCGCUCAACCAGAGAGUCUGUAAUCGCUUUAAGGGUA, 1.25; with GUUAACGGUCAUAGGCCAUGGAAACUAGGAGCCCCAUUUCGCUGCCAGUGAAGAAACGAACAAAGAAAAUCUGGGUCAGGCAGGCAUCAAAGGAAAUAGCCUUGCGCUCAACCAGAAAGUCUGUAAUCAUUUUAAGGGUA, 0.26. For GUUAACGGUCAUAGGCCAUGGAAACUAGGAGCCCCAUUUCGCUGCCAGCGAAGAAAUGAACAAAGAAAAUCUGGGCCAGGCAGGCAUCAAAAGAGAUAGUCUUGCGCUCAACCAGAAAGUCUGUAAUCAUUUUAAGGGUA, the self-cleavage was determined as 1.65. Regarding GUUAACGGUCAUAGGCCAUGGAAACUAGGAGCGCCGUUUCGCAGCCAGUGAAGAAAUGAACAAAGAAAAUCUGGGCCUGGCAGGCAUCAAAAGAAAUAGUCUUGCGCUCAACCAGAAAGUCUGUAAUCAUUUUAAGGGUA, the self-cleavage worked out at 0.29. Regarding GUUAACGGUCAUAGGCCAUGGAAACUAGGAGCCCCAUUUCGCUGCCAGUGAAGAAAUGAACAAAGAAAAUCUGGGCCAGGCAGGCAUCAAAAGAAAUAGUCUUGCGCUCAACCAGAAAGUCUGUGAUCACUUUAAGGGUA, the self-cleavage was determined as 0.87. For the variant GUUAACGGUCAUAGGCCAUGGAAACUAGGAGCCCCAUUUCGCUGCCAGUGAAGAAAUGAACUAAGAAAAUCUGGGCCAGGCAGGCAUCAAAAGAAAUAGUCUUGCGCUCUACCAGAAAGUCUGUAAUCAUUUUAAGGGUA, the self-cleavage amounted to 2. In the case of GUUAACGGUCAUAGGCCAUGGAAACUAGGAGCGCCAUUUCGCUGCCAGUGAAGAGAUGAACAAAGAAAAUCUGGGCCAGGCAGGCAUCAAAAGAAAUAGUCUUGCACUCAACCAGAAAGCCUGUAAUCAUUUUAAGGGUA, the self-cleavage came out at 0.01. Regarding GUUAACGGUCAUAGGCCAUGGAAACUAGGAGCCCCAUUUCGCUGCCAGUGAAGAAAUGAACAAAGAAAAUCUGGGCCAGGCAGGCACCAAAAGAAAUAGUCUUGCGCUCAACCAGAAUGUCUGUAAUCAUUUCAAGGGUA, the self-cleavage was found to be 0.44. Consider GUUAACGGUCAUAGGCCAUGGAAACUAGGAGCGCCAUUUCGCUGCCGGUGAAGAAAUGAACAAAGAAAAUCUGGGCCAGGCAGGCAUCAAGAGAAACGGUCUUGCGCUCAACCAGAAAGUCUGUAAUCAUUUUAAGGGUA, for which the self-cleavage amounted to 0.75.

Regarding GUUAACGGUCAUAGGCCAUGGAAACUAGGAGCCCCAUUUCGCUGCCAGUGAAGAAAUGAACAGAGAAGAUCUGGGCUAGGCAGGCAUCAAAAGAAAUAGUCUUGCGCUCAACCAGAAAGUCUGUAAUCAUUUUAAGGGUA, the self-cleavage is 1.46. With GUUAACGGUCAUAGGCCAUGGAAACUAGGAGCCCCAUUACGCUGCCAGUGAAGAAAUGAACAAAGAAAAUAUGGGCCAGGCAGGCAUCAAAAGCAAUAGUCUUGCGCUCAACCAGAAAGUCUGUAAUCAUUUUAAGGGUA, the self-cleavage is 0.7.

Turning to GUUAACGGUCAUAGGCCAUGGAAACUAGGAGUACCAUUUCGCUGCCAGUGAAGAAAUGAACAAAGAAAAUCUGGGCCAGGCAGGCAUCAAAAGAAGUAGUCUUGCGCUCAACCAGAAAGUCUGUAAUCAUUUUAUGGGUA, the self-cleavage is 0.62. On to GUUAACGGUCAUAGGCCAUGGAAACUAGGAGCCCCAUUUCGCUGCCAGUGAAGAAAUGAACAAAGAAAAUCUGGGCCAGGCAGGCAUCAAAAGAAGUAGUCUUGCGCUCAACCAGAAAGUCCGUAAUCAUUUUAAGGGUA, for which the self-cleavage came out at 0.22. In the case of GUUAACGGUCAUAGGCCAUGGAAACUAGGAGCGCCAUUUCGCUGCCAGUGAAGAAGUGAACAAAGAAAAUCUGGGCCAGGCAGCCAUCAAAAGAAAUAGUCUUGCGCUCAACCAGAAAGUCUGUAGUCAUUUUAAGGGUA, the self-cleavage was 0.12.

For GUUAACGGUCAUAGGCCAUGGAAACUAGGAGCGCCAUUUCGCUGCCAGUGAAGAGAUGAACAAAGAAAAUCUGGGCCAGGCAGGCAUCAAAAGAAAUAGUCUUGCGCUCAACCAGAAAGUCCGUAAUCAUUUUAAGGGUA, the self-cleavage was determined as 0.42. For GUUAACGGUCAUAGGCCAUGGAAACUAGGAGCGCCAUUUCGCUGCCAGUGAAGGAAUGAACAAAGAAAAUCUGGGCCAGGCAGGCAUCAAGAGAAAUAGUCUUGCGCUCAACCAGAAAGUCUGUAAUCAUUUUAAGGGUA, the self-cleavage was 0.22.

Turning to GUUAACGGUCAUAGGCCAUGGAAACUAGGAGCGCCAUUUCGCUGCCAGUGGAGAAAUGAACAAAGAAAAUCUGGGCCAGGCAGGCAUCAAAAGAAAUAGUCUUGAGCUCAACCAGAAAGUCUGUAAUCAUUUUAAGGGUA, the self-cleavage came out at 0.05. With GUUAACGGUCAUAGGCCAUGGAAACUAGGAGCGCCAUUUCGCUGCCAGUGAGGAAAUGAACAAAGAAAAUCUGGGCCAGGUAGGCAUCAAAAGAAAUAGUCUUGCGCUCAACCAGAAAGUCUGUAAUCAUUUUAUGGGUA the figure was 0.1; with GUUAACGGUCAUAGGCCAUGGAAACUAGGAGUACCAUCUCGCUGCCAGUGAAGAAAUGAACAAAGAAAAUCUGGGCCAGGCAGGCAUCAAAAGAAAUAGUCUUGCGCUCAACCAGAAAGUCUGUAAUCGUUUUAAGGGUA, 1.68; with GUUAACGGUCAUAGGCCAUGGAAACUAGGAGUACCAUUCCGCUGCCAGUGGAGAAAUGAACAAAGAAAAUCUGGGCCAGGCAGGCAUCAAAAGAUGUAGCCUUGCGCUCAACCAGAGAGUCUGUAAUCAUUUUAAGGGUA, 0.68. For GUUAACGGUCAUAGGCCAUGGAAACUAGGAGUACCAUUUCGCUGCCAGUGAAGAAAUGAACAAAGAAAAUCUGGGCCAGGCAGGCAUCAAAAGAAAUAGUCUUGCGCUCAACCAGAAAGUCUGUGAUCACUUUAAGGGUA, the self-cleavage came out at 0.23.

In the case of GUUAACGGUCAUAGGCCAUGGAAACUAGGAGCGCCAUUUCGCUGCCGGUGAAGAAAUGAGCAAAGAAAAUCUGGGCCAGGCAGGCAUCAAAAGAGAUAGUCUUGCGCACAACCAGAAAGUCUGUAAUCAUUUUAAGGGUA, the self-cleavage stood at 0.01. Regarding GUUAACGGUCAUAGGCCAUGGAAACUAGGAGCCCCAUUUCGCUGCCAGCGAAGAAAUGAACAAAGAAAAUCUGGGCCAGGCAGGCAUCAAAAGAAAUAGUCUUGCGCUCAACCAGAAAGUCUGUAGUCAUUUUAAGGGUA, the self-cleavage is 0.92. On to GUUAACGGUCAUAGGCCAUGGAAACUAGGAGCGCCGUUUCGCUGCCAGUGAAGAAAUGAACAAAGAAAAUCUGGGCCAGGCAGGCAUCAAAAGAAACAGUCUUGCGCUCAACCAGAAAGUCUGUAAUCAUUUUAAGGGUA, for which the self-cleavage turned out to be 0.76. As to GUUAACGGUCAUAGGCCAUGGAAACUAGGAGUACCAUUUCGCUGCCAGUGAAGAAAUGAACAAAGAAAAUCUGGGCCAGGCAGGCAUCGAAAGAAAUAGUCUUGCGCUCAACCAGAAAGCCUGUAAUCAUUUUAAGGGUA, the self-cleavage was determined as 0.67. On to GUUAACGGUCAUAGGCCAUGGAAACUAGGAGCGCCAUUUCGCUGCCAGUGUAGAAAUGAACAAAGAAAAUCUGGGCCAGGCAGGCAUCAGAAGAAAUAGUCUCGCGCUCAACCAGAAAGUCUGUAAUCAUUUUAAGGGUA, for which the self-cleavage worked out at 0.14.

As for GUUAACGGUCAUAGGCCAUGGAAACUAGGAGUACCAUUCCGCUGCCAGUGAAGAAAUGAGCAAAGAAAAUCUGGGCCAGGCAGGCAUCAAAAGAAAUAGUCUUGCGCUCAACCAGAAAGUCUGUAAUCAUUUUAAGGGUA, the self-cleavage was 2.03. For the variant GUUAACGGUCAUAGGCCAUGGAAACUAGGAGUACCAUUUCGCUGCCAGUGAAGAAAUGAACAAAGAAAAUCUGGGCCAGGCACGCAUCAAAAGAAAUAGUCUUGCGCUCAACCAGAAAGUCUGUAAUCAUCUUAAGGGUA, the self-cleavage stood at 0. With GUUAACGGUCAUAGGCCAUGGAAACUAGGAGCGCCAUUUCGCUGCCGGUGAAGAAAUGAGCAAAGAAAAUCUGGGCCAGGCAGGCAUCAAAAGAGAUAGUCUUGCGCUCAACCAGAAAGUCUGUAAUCAUUUUAAGGGUA the figure was 0.86. On to GUUAACGGUCAUAGGCCAUGGAAACUAGGAGCCCCAUUUCGCUGCCAGUGAAGAAAUGAACAAAGAAAAUCUGGGCCAGGCAGGCAUCGGAAGAAAUAGUCUUGCGCUCAACCAGAAAGUCUGUAAUCAUUUUAAGGGUA, for which the self-cleavage came to 1.25. As to GUUAACGGUCAUAGGCCAUGGAAACUAGGAGCGCCGUAUCGCUGCCAGUGAAGAAAUGAACAAAGAAAAUCUGGGCCAGGCAGGCAUCAAAAGAAAUAGUCUUGCGCUCAACCAGAAAGUCUGUAAUCAUUUUAAGGGUA, the self-cleavage amounted to 1.36. For GUUAACGGUCAUAGGCCAUGGAAACUAGGAGCGCCAUUUCGCUGCCGGUGAAGAAAUGAACAAAGAAAAUCUGGGCCAGGCAGGCAUCAGAAGAAAUAGUCUUGCGCUCAACCAGGGAGUCUGUAAUCAUUUUAAGGGUA the value was 0.16. With GUUAACGGUCAUAGGCCAUGGAAACUAGGAGCGCCAUUUCGCUGCCUGUGAAAAAAUGAACAAAGUAAAUCUGGGCCAGGCAGGCACCAAAAGAAAUAGUCUUGCGCUCAACCAGAAAGUCUGUAAUCAUUUUAAGGGUA the figure was 0.34; with GUUAACGGUCAUAGGCCAUGGAAACUAGGAGCCCCAUUUCGCUGCCAGUGAAGAAAUGAGCAAAGAAAAUCUGGGCCAGGCAGGCAUCAAAAGAAAUAGUCCUGCGCUCAACCAGAAGGUCUGUAAUCAUUUUAAGGGUA, 1.18. As to GUUAACGGUCAUAGGCCAUGGAAACUAGGAGCCCCAUUUCGCUGCCAGUGAAGAAAUGAACAAAGAAAAUCCGGGCCAGGCAGGCAUCAAAAGAAAUAGUCUUGCGCUCAACCAGAAAGUCUGUAAUCAUCUUAAGGGUA, the self-cleavage stood at 0.25. GUUAACGGUCAUAGGCCAUGGAAACUAGGAGCGCCGUUUCGCCGCCAGUGAAGAAAUGAACAAAGAAAAUCUGGGCCAGGCAGGCAUCAAAAGAAAUAGUCUUGCGCUUAACCAGAAAGUCCGUAAUCAUUUUAAGGGUA: the self-cleavage turned out to be 0.09. Consider GUUAACGGUCAUAGGCCAUGGAAACUAGGAGCGCCAUUUCGCUGCCAGUGAAGAGAUGAACAAAGAAAAUCUGGGCCGGGCAGGCAUCAAAAGAAAUAGUCCUGCGCUCAACCAGAAAGUCUGUAAUCAUUUUAAGGGUA, for which the self-cleavage came to 0.25. As to GUUAACGGUCAUAGGCCAUGGAAACUAGGAGCCCCAUUUCGCUGCCAGUGAAGAAAUGAACAGAGAAAAUCUGGGCCAGGCAGGCAUCGAAAGAAAUAGUCUUGCGCUCAACCAGAAAGUCUGAAAUCAUUUUAAGGGUA, the self-cleavage came to 0.51.
